± gives the standard deviation of the averaged measurements. Restriction of a single-cycle SIVsab GFP reporter by TRIM5α v1-loop variants in CRFK cells. Human variants: read share among cells still uninfected after two challenges over input, higher = gained restriction. Rhesus variants: share among infected cells over input, higher = lost restriction. Reporter dose not given per row. No active / inactive call per row; the paper calls a change when both replicates lie above its controls (mean + 2 SD of stop or wild-type variants, or the top frameshift score). Residues outside the varied loop are taken from Swiss-Prot. The paper reads the human single-substitution scores as noise; they and the rhesus combinations repeat poorly (rank correlation 0.3 to 0.4), indel scores repeat only for the top variants, rhesus substitutions well (0.9).

This data set concerns SIVsab (simian immunodeficiency virus of sabaeus monkeys), single-cycle GFP reporter, in CRFK cells. Put plainly: enrichment among infected cells over input (fold); higher = weaker restriction. The note with it: library: human / rhesus combinations. As for the experimental part: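 Pools of CRFK cells expressing variants of the TRIM5α v1 loop were challenged with the single-cycle reporter, sorted by GFP and sequenced; mean of two replicates.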
For “MASGILLNVKEEVTCPICLELLTEPLSLHCGHSFCQACITANHKKSMLYKEGERSCPVCRISYQPENIQPNRHVANIVEKLREVKLSPEEGQKVDHCARHGEKLLLFCQEDSKVICWLCERSQEHRGHHTFLMEEVAQEYHVKLQTALEMLRQKQQEAEKLEADIREEKASWKIQIDYDKTNVSADFEQLREILDWEESNELQNLEKEEEDILKSLTKSETEMVQQTQYMRELISELEHRLQGSMMDLLQGVDGIIKRIENMTLKKPKTFHKNQRRVFRAPDLKGMLDMFRELTDARRYWVDVTLAPNNISHAVIAEDKRQVSSRNPQIMYGARGTRYTFPSFVNFNYCTGVLGSQSITSGKHYWEVDVSKKSAWILGVCAGFQSDAMYNIEQNENYQPKYGYWVIGLQEGVKYSVFQDGSSHTPFAPFIVPLSVIICPDRVGVFVDYEACTVSFFNITNHGFLIYKFSQCSFSKPVFPYLNPRKCTVPMTLCSPSS [rhesus TRIM5α, 332-344 = GARGTRYTFPSFV]”, the enrichment came out at 1.13 ± 0.47.

In the case of “MASGILLNVKEEVTCPICLELLTEPLSLHCGHSFCQACITANHKKSMLYKEGERSCPVCRISYQPENIQPNRHVANIVEKLREVKLSPEEGQKVDHCARHGEKLLLFCQEDSKVICWLCERSQEHRGHHTFLMEEVAQEYHVKLQTALEMLRQKQQEAEKLEADIREEKASWKIQIDYDKTNVSADFEQLREILDWEESNELQNLEKEEEDILKSLTKSETEMVQQTQYMRELISELEHRLQGSMMDLLQGVDGIIKRIENMTLKKPKTFHKNQRRVFRAPDLKGMLDMFRELTDARRYWVDVTLAPNNISHAVIAEDKRQVSSRNPQIMYGARGTRYTFPSLTNFNYCTGVLGSQSITSGKHYWEVDVSKKSAWILGVCAGFQSDAMYNIEQNENYQPKYGYWVIGLQEGVKYSVFQDGSSHTPFAPFIVPLSVIICPDRVGVFVDYEACTVSFFNITNHGFLIYKFSQCSFSKPVFPYLNPRKCTVPMTLCSPSS [rhesus TRIM5α, 332-344 = GARGTRYTFPSLT]”, the enrichment stood at 1.43 ± 1.

On to “MASGILLNVKEEVTCPICLELLTEPLSLHCGHSFCQACITANHKKSMLYKEGERSCPVCRISYQPENIQPNRHVANIVEKLREVKLSPEEGQKVDHCARHGEKLLLFCQEDSKVICWLCERSQEHRGHHTFLMEEVAQEYHVKLQTALEMLRQKQQEAEKLEADIREEKASWKIQIDYDKTNVSADFEQLREILDWEESNELQNLEKEEEDILKSLTKSETEMVQQTQYMRELISELEHRLQGSMMDLLQGVDGIIKRIENMTLKKPKTFHKNQRRVFRAPDLKGMLDMFRELTDARRYWVDVTLAPNNISHAVIAEDKRQVSSRNPQIMYGARGTRYTFPSLVNFNYCTGVLGSQSITSGKHYWEVDVSKKSAWILGVCAGFQSDAMYNIEQNENYQPKYGYWVIGLQEGVKYSVFQDGSSHTPFAPFIVPLSVIICPDRVGVFVDYEACTVSFFNITNHGFLIYKFSQCSFSKPVFPYLNPRKCTVPMTLCSPSS [rhesus TRIM5α, 332-344 = GARGTRYTFPSLV]”, for which the enrichment is 1.62 ± 1.2.

Take “MASGILLNVKEEVTCPICLELLTEPLSLHCGHSFCQACITANHKKSMLYKEGERSCPVCRISYQPENIQPNRHVANIVEKLREVKLSPEEGQKVDHCARHGEKLLLFCQEDSKVICWLCERSQEHRGHHTFLMEEVAQEYHVKLQTALEMLRQKQQEAEKLEADIREEKASWKIQIDYDKTNVSADFEQLREILDWEESNELQNLEKEEEDILKSLTKSETEMVQQTQYMRELISELEHRLQGSMMDLLQGVDGIIKRIENMTLKKPKTFHKNQRRVFRAPDLKGMLDMFRELTDARRYWVDVTLAPNNISHAVIAEDKRQVSSRNPQIMYGARGTRYTFPTFTNFNYCTGVLGSQSITSGKHYWEVDVSKKSAWILGVCAGFQSDAMYNIEQNENYQPKYGYWVIGLQEGVKYSVFQDGSSHTPFAPFIVPLSVIICPDRVGVFVDYEACTVSFFNITNHGFLIYKFSQCSFSKPVFPYLNPRKCTVPMTLCSPSS [rhesus TRIM5α, 332-344 = GARGTRYTFPTFT]”: the enrichment came to 1.36 ± 0.12.

For “MASGILLNVKEEVTCPICLELLTEPLSLHCGHSFCQACITANHKKSMLYKEGERSCPVCRISYQPENIQPNRHVANIVEKLREVKLSPEEGQKVDHCARHGEKLLLFCQEDSKVICWLCERSQEHRGHHTFLMEEVAQEYHVKLQTALEMLRQKQQEAEKLEADIREEKASWKIQIDYDKTNVSADFEQLREILDWEESNELQNLEKEEEDILKSLTKSETEMVQQTQYMRELISELEHRLQGSMMDLLQGVDGIIKRIENMTLKKPKTFHKNQRRVFRAPDLKGMLDMFRELTDARRYWVDVTLAPNNISHAVIAEDKRQVSSRNPQIMYGARGTRYTFPTFVNFNYCTGVLGSQSITSGKHYWEVDVSKKSAWILGVCAGFQSDAMYNIEQNENYQPKYGYWVIGLQEGVKYSVFQDGSSHTPFAPFIVPLSVIICPDRVGVFVDYEACTVSFFNITNHGFLIYKFSQCSFSKPVFPYLNPRKCTVPMTLCSPSS [rhesus TRIM5α, 332-344 = GARGTRYTFPTFV]”, the enrichment is 1.01 ± 0.18.

For the sequence “MASGILLNVKEEVTCPICLELLTEPLSLHCGHSFCQACITANHKKSMLYKEGERSCPVCRISYQPENIQPNRHVANIVEKLREVKLSPEEGQKVDHCARHGEKLLLFCQEDSKVICWLCERSQEHRGHHTFLMEEVAQEYHVKLQTALEMLRQKQQEAEKLEADIREEKASWKIQIDYDKTNVSADFEQLREILDWEESNELQNLEKEEEDILKSLTKSETEMVQQTQYMRELISELEHRLQGSMMDLLQGVDGIIKRIENMTLKKPKTFHKNQRRVFRAPDLKGMLDMFRELTDARRYWVDVTLAPNNISHAVIAEDKRQVSSRNPQIMYGARGTRYTFPTLTNFNYCTGVLGSQSITSGKHYWEVDVSKKSAWILGVCAGFQSDAMYNIEQNENYQPKYGYWVIGLQEGVKYSVFQDGSSHTPFAPFIVPLSVIICPDRVGVFVDYEACTVSFFNITNHGFLIYKFSQCSFSKPVFPYLNPRKCTVPMTLCSPSS [rhesus TRIM5α, 332-344 = GARGTRYTFPTLT]”, the enrichment was found to be 0.816 ± 0.15.

As to “MASGILLNVKEEVTCPICLELLTEPLSLHCGHSFCQACITANHKKSMLYKEGERSCPVCRISYQPENIQPNRHVANIVEKLREVKLSPEEGQKVDHCARHGEKLLLFCQEDSKVICWLCERSQEHRGHHTFLMEEVAQEYHVKLQTALEMLRQKQQEAEKLEADIREEKASWKIQIDYDKTNVSADFEQLREILDWEESNELQNLEKEEEDILKSLTKSETEMVQQTQYMRELISELEHRLQGSMMDLLQGVDGIIKRIENMTLKKPKTFHKNQRRVFRAPDLKGMLDMFRELTDARRYWVDVTLAPNNISHAVIAEDKRQVSSRNPQIMYGARGTRYTFPTLVNFNYCTGVLGSQSITSGKHYWEVDVSKKSAWILGVCAGFQSDAMYNIEQNENYQPKYGYWVIGLQEGVKYSVFQDGSSHTPFAPFIVPLSVIICPDRVGVFVDYEACTVSFFNITNHGFLIYKFSQCSFSKPVFPYLNPRKCTVPMTLCSPSS [rhesus TRIM5α, 332-344 = GARGTRYTFPTLV]”, the enrichment was determined as 1.07 ± 0.59.

In the case of “MASGILLNVKEEVTCPICLELLTEPLSLHCGHSFCQACITANHKKSMLYKEGERSCPVCRISYQPENIQPNRHVANIVEKLREVKLSPEEGQKVDHCARHGEKLLLFCQEDSKVICWLCERSQEHRGHHTFLMEEVAQEYHVKLQTALEMLRQKQQEAEKLEADIREEKASWKIQIDYDKTNVSADFEQLREILDWEESNELQNLEKEEEDILKSLTKSETEMVQQTQYMRELISELEHRLQGSMMDLLQGVDGIIKRIENMTLKKPKTFHKNQRRVFRAPDLKGMLDMFRELTDARRYWVDVTLAPNNISHAVIAEDKRQVSSRNPQIMYGARGTRYTFQSFTNFNYCTGVLGSQSITSGKHYWEVDVSKKSAWILGVCAGFQSDAMYNIEQNENYQPKYGYWVIGLQEGVKYSVFQDGSSHTPFAPFIVPLSVIICPDRVGVFVDYEACTVSFFNITNHGFLIYKFSQCSFSKPVFPYLNPRKCTVPMTLCSPSS [rhesus TRIM5α, 332-344 = GARGTRYTFQSFT]”, the enrichment was 1.5 ± 0.042.

For the sequence “MASGILLNVKEEVTCPICLELLTEPLSLHCGHSFCQACITANHKKSMLYKEGERSCPVCRISYQPENIQPNRHVANIVEKLREVKLSPEEGQKVDHCARHGEKLLLFCQEDSKVICWLCERSQEHRGHHTFLMEEVAQEYHVKLQTALEMLRQKQQEAEKLEADIREEKASWKIQIDYDKTNVSADFEQLREILDWEESNELQNLEKEEEDILKSLTKSETEMVQQTQYMRELISELEHRLQGSMMDLLQGVDGIIKRIENMTLKKPKTFHKNQRRVFRAPDLKGMLDMFRELTDARRYWVDVTLAPNNISHAVIAEDKRQVSSRNPQIMYGARGTRYTFQSFVNFNYCTGVLGSQSITSGKHYWEVDVSKKSAWILGVCAGFQSDAMYNIEQNENYQPKYGYWVIGLQEGVKYSVFQDGSSHTPFAPFIVPLSVIICPDRVGVFVDYEACTVSFFNITNHGFLIYKFSQCSFSKPVFPYLNPRKCTVPMTLCSPSS [rhesus TRIM5α, 332-344 = GARGTRYTFQSFV]”, the enrichment was found to be 1.4 ± 0.19.

As to “MASGILLNVKEEVTCPICLELLTEPLSLHCGHSFCQACITANHKKSMLYKEGERSCPVCRISYQPENIQPNRHVANIVEKLREVKLSPEEGQKVDHCARHGEKLLLFCQEDSKVICWLCERSQEHRGHHTFLMEEVAQEYHVKLQTALEMLRQKQQEAEKLEADIREEKASWKIQIDYDKTNVSADFEQLREILDWEESNELQNLEKEEEDILKSLTKSETEMVQQTQYMRELISELEHRLQGSMMDLLQGVDGIIKRIENMTLKKPKTFHKNQRRVFRAPDLKGMLDMFRELTDARRYWVDVTLAPNNISHAVIAEDKRQVSSRNPQIMYGARGTRYTFQSLTNFNYCTGVLGSQSITSGKHYWEVDVSKKSAWILGVCAGFQSDAMYNIEQNENYQPKYGYWVIGLQEGVKYSVFQDGSSHTPFAPFIVPLSVIICPDRVGVFVDYEACTVSFFNITNHGFLIYKFSQCSFSKPVFPYLNPRKCTVPMTLCSPSS [rhesus TRIM5α, 332-344 = GARGTRYTFQSLT]”, the enrichment came to 1.64 ± 0.047.

Take “MASGILLNVKEEVTCPICLELLTEPLSLHCGHSFCQACITANHKKSMLYKEGERSCPVCRISYQPENIQPNRHVANIVEKLREVKLSPEEGQKVDHCARHGEKLLLFCQEDSKVICWLCERSQEHRGHHTFLMEEVAQEYHVKLQTALEMLRQKQQEAEKLEADIREEKASWKIQIDYDKTNVSADFEQLREILDWEESNELQNLEKEEEDILKSLTKSETEMVQQTQYMRELISELEHRLQGSMMDLLQGVDGIIKRIENMTLKKPKTFHKNQRRVFRAPDLKGMLDMFRELTDARRYWVDVTLAPNNISHAVIAEDKRQVSSRNPQIMYGARGTRYTFQSLVNFNYCTGVLGSQSITSGKHYWEVDVSKKSAWILGVCAGFQSDAMYNIEQNENYQPKYGYWVIGLQEGVKYSVFQDGSSHTPFAPFIVPLSVIICPDRVGVFVDYEACTVSFFNITNHGFLIYKFSQCSFSKPVFPYLNPRKCTVPMTLCSPSS [rhesus TRIM5α, 332-344 = GARGTRYTFQSLV]”: the enrichment was 0.817 ± 0.28.

The values are drawn from the supplement of paper PMC12230231.
